# In all, about 310,000 compounds went through this assay and about 2,200 (0.71%) showed an effect of 50% or more. Effects have a minus sign here. The list shows a part of the results.
# Molecular target: human ether-à-go-go-related gene (hERG) potassium channel (human, UniProt Q12809)
# Test: primary screen, population patch clamp on CHO cells stably expressing hERG
# Sequence of human ether-à-go-go-related gene (hERG) potassium channel (Q12809 whole entry, looked up): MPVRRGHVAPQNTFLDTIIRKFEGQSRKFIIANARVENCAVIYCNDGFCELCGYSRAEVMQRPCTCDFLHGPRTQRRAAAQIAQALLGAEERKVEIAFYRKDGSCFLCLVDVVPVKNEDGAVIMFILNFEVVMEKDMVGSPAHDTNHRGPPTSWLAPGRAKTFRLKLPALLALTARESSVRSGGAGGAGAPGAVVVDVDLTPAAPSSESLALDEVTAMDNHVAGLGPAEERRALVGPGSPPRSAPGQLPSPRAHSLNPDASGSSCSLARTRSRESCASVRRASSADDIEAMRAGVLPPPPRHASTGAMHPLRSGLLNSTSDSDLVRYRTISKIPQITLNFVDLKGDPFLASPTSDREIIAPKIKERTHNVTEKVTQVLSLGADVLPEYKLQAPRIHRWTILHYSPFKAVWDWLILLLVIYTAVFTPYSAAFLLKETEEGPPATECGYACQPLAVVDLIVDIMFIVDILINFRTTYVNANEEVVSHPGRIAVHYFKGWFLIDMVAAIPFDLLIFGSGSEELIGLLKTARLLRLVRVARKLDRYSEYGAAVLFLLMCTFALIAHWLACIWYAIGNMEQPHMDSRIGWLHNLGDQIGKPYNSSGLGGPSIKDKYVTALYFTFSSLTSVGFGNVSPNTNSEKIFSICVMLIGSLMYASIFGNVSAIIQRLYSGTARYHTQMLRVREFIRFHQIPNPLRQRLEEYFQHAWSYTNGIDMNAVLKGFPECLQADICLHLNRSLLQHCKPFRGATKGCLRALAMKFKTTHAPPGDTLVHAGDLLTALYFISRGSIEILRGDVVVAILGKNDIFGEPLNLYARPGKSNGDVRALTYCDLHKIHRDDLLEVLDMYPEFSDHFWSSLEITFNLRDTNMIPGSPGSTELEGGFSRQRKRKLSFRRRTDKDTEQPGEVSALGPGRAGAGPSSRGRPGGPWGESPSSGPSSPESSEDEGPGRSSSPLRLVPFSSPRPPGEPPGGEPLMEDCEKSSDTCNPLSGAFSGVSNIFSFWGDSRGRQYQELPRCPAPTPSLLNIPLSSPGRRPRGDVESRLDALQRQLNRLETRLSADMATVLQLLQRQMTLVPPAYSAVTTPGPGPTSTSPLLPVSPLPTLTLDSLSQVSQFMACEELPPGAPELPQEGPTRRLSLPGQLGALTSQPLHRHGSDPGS
row,Structure (SMILES),"hERG current change (%, negative = inhibition) at 1uM"
1,Cc1ccc(C(=O)C(SC(C)(C)C)n2cncn2)cc1 (stereo not shown),9.33%
2,COc1ccc(-c2csc(NC(C)c3nc4cc(Cl)c(Cl)cc4n3CCOCCO)n2)cc1 (stereo not shown),13.6%
3,CC(C)n1cc(CN2CCN(CCc3ccccc3)C(CCO)C2)cn1 (stereo not shown),-25.4%
4,O=C1C2C3C=CC(CC3)C2C(=O)N1c1ccc(F)cc1 (stereo not shown),16.2%
5,COc1ccccc1C1C(C(=O)c2sc(C)nc2C)=C(O)C(=O)N1CCN1CCOCC1 (stereo not shown),6.41%
6,CC(C)c1ccccc1NC(=O)COC(=O)C1(C)CC1(Cl)Cl (stereo not shown),16.6%
7,O=C(Nc1ccc(Oc2ccc(C(=O)O)c(C(=O)O)c2)cc1)c1cccs1,32.6%
8,C=CCNC(=O)c1cc2c(C(F)(F)F)nn(C)c2s1,11.6%
9,O=C(Cn1c(-c2cscn2)nc2ccccc21)Nc1ccccc1F,8%
10,Cc1ccc(C)c(NC(=O)CCN2CCc3ccccc3C2)c1,-0.637%
11,CCN(CC(=O)NCc1ccc(F)cc1)C(=O)c1ccc2c(c1)OCO2,5.03%
12,O=C(CSc1nccc(=O)[nH]1)Nc1cccc2ccccc12,21.2%
13,Cc1ccc(C)c(N2CCN(C(=O)c3ccccc3Br)CC2)c1,4.91%
14,Cc1cc(NCCCn2ccnc2)n2nc(-c3ccc(F)cc3)cc2n1,3.04%
15,CCN(CC)CCCNc1nc(CN2CCOCC2)nc2sc3c(c12)CCC3,0.788%
16,Cc1cccc(C)c1N1CCN(S(=O)(=O)N2CCOCC2)CC1,-9.13%
17,COC(=O)c1ccc2nc(C(F)(F)F)[nH]c2c1,1.49%
18,Cc1ccc(S(=O)(=O)N2CCOCC2)cc1C(=O)Nc1ccc(C(N)=O)cc1,9.14%
19,CN(CC(=O)Nc1ccccc1C(F)(F)F)C(=O)c1cc(-c2cccs2)nn1-c1ccccc1,6.95%
20,O=C(CCCc1ccccc1)NC1CC1,-1.62%
21,Cn1ncc2c(N3CCN(c4ccc(Cl)c(Cl)c4)CC3)ncnc21,-7.39%
22,Cc1nc(SCC(=O)OCc2ccccc2)c(C#N)c(-c2ccccc2)c1C(=O)Nc1ccccc1,14.5%
23,CCN(CC)S(=O)(=O)c1ccc2oc(C(=O)NCc3ccc(F)cc3)c(C)c2c1,19.7%
24,Cc1cc(C)nc(SCC(=O)NCc2ccco2)n1,4.97%
25,O=C(Nc1ccccc1)c1ccc(S(=O)(=O)N(CCO)CCO)cc1,9.83%

# — article PMC4336329 (PLoS ONE, 2015)
